Assay results as given in PubChem BioAssay AID1460 (National Center for Advancing Translational Sciences (NCATS), 2008).
About 5,800 (2.1%) of roughly 270,000 compounds were called active. The inconclusive results got no clear call from the source; some entries with a clear call stand among them for comparison. The call rests on the fitted dose curve; in most records, active means well fitted inhibition curve with a large enough effect; inconclusive means small, poorly fitted or top-dose-only effect; inactive means flat fitted curve, though single readings scatter. Where the call is inconclusive, the potency comes from a doubtful curve fit.

biological target: Microtubule-associated protein tau (Homo sapiens) (UniProt P10636); experiment: qHTS for Inhibitors of Tau Fibril Formation, Thioflavin T Binding; details: recombinant tau K18 P301L (four-repeat tau fragment), heparin-induced fibrillization, ThT fluorescence; series mostly up to 57.4 µM; activity, negative = inhibition: at the top concentration; further: nearly all actives have a fitted effect of over 55% in size
How it was run: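 In this qHTS, human K18 P301L tau is incubated with compound and heparin for 6 hr at 37 C, and Thioflavin T fluorescence then reports fibril load.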
On the % scale 0 is the no-effect control and ±100 the full control effect; potency means the concentration at half of the fitted maximal effect; tags describe the fitted curve by direction and shape.

UniProt P10636, sequence (P10636 whole entry, looked up, the tested form may be a part): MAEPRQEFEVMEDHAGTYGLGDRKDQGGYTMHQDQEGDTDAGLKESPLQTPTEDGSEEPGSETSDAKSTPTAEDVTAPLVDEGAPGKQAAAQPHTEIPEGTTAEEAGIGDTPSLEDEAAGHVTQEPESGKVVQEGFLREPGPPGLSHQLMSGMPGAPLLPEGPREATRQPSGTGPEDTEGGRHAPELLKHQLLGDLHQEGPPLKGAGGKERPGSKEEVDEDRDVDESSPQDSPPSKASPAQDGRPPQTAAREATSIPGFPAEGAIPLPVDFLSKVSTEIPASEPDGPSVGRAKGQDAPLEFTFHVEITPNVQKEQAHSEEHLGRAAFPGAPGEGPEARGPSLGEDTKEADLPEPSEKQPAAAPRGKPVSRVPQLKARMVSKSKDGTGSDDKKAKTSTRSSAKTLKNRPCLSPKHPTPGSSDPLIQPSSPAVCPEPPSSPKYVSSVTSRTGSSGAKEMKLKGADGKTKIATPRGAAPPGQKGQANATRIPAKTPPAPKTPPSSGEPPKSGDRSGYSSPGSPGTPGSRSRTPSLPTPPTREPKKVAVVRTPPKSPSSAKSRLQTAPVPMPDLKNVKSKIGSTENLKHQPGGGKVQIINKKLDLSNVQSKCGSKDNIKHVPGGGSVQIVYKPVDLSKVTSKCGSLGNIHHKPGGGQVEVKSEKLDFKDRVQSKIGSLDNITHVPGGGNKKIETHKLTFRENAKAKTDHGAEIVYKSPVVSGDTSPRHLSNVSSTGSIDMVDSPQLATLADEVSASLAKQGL

| SMILES | Potency | activity, negative = inhibition |
| --- | --- | --- |
| Cc1ccc2cc(CCNC(=O)c3ccc4c(c3)OCO4)c(=O)[nH]c2c1 | inconclusive: 12.6 µM [inhibitor, partial curve] | – |
| CCCCCCCC(=O)N/N=C/c1ccc([N+](=O)[O-])o1 | inconclusive: 31.6 µM [inhibitor, single point] | – |
| O=C(/C=C/c1ccc([N+](=O)[O-])s1)N1CCCCC1 | inconclusive: 20 µM [inhibitor, single point] | – |
| CS(=O)(=O)N1N=C(c2cccs2)CC1c1ccco1 (configuration not stated) | inconclusive: 14.1 µM [inhibitor, partial curve] | – |
| COC(=O)c1c(C)[nH]c(O)c1C=Nc1ccc(Oc2ccccc2)cc1 | inconclusive: 3.55 µM [inhibitor, full curve] | – |
| COc1ccc(S(=O)(=O)NCC2CCCN(Cc3ccccc3C)C2)cc1 (configuration not stated) | – | inactive: -15.1% |
| COc1cc(/C=N/NC(=O)c2cc(-c3cccn3C)n[nH]2)cc(OC)c1OC | inconclusive: 5.01 µM [inhibitor, partial curve] | – |
| CCC(C)(C)c1ccc(OCCCC[n+]2cccc(C)c2)c(C(C)(C)CC)c1 | inconclusive: 22.4 µM [inhibitor, partial curve] | – |
| Cc1nc2ccc3nc(NC(=O)C4COc5ccccc5O4)sc3c2s1 (configuration not stated) | inconclusive: 0.447 µM [inhibitor, full curve] | – |
| COc1cccc(N2CCN(c3cnc4ccccc4n3)CC2)c1 | inconclusive: 14.1 µM [inhibitor, partial curve] | – |
| Cc1ccccc1C1c2[nH]c3ccccc3c2CCN1C(=O)c1ccc(=O)n(C)n1 (configuration not stated) | inconclusive: 44.7 µM [inhibitor, single point] | – |
| COc1ccc(OCCSc2nnc(CCNC(=O)c3ccc(Cl)c(Cl)c3)n2C)cc1 | inconclusive: 15.8 µM [inhibitor, partial curve] | – |
| Cc1ccc(C)c(OCCn2c(=O)c3c(ncn3C3CCCC3)n(Cc3ccccc3)c2=O)c1 | – | inactive: -8.13% |
| Cc1[nH]nc2c1C(c1ccccc1F)CC(=O)N2 (configuration not stated) | – | inactive: 6.59% |
| COc1ccc(OC)c(CCNC(=O)c2cnn(-c3ccccc3)c2-n2cccc2)c1 | inconclusive: 39.8 µM [inhibitor, single point] | – |
| O=C(N=Nc1c(O)[nH]c2ccccc12)c1ccccc1NS(=O)(=O)c1cccs1 | inconclusive: 17.8 µM [inhibitor, partial curve] | – |
| C(=N\Nc1nc(Nc2ccccc2)nc(N2CCOCC2)n1)/c1c[nH]c2ccccc12 | inconclusive: 12.6 µM [inhibitor, partial curve] | – |
| CCCn1nnc(NC(=S)NC(=O)c2ccc(-c3ccc(Br)cc3)o2)n1 | – | inactive: -11.4% |
| Cn1c(SCC(=O)NCc2ccco2)nnc1-c1ccc(S(=O)(=O)N2CCOCC2)cc1 | – | inactive: -8.08% |
| CCN(CC)C(=O)CSc1nc2c(c(=O)n(C)c(=O)n2C)n1Cc1ccccc1 | – | inactive: 2.01% |
| CCCCSc1nnc(-c2ccc(NC(C)=O)cc2)n1C | inconclusive: 10 µM [inhibitor, partial curve] | – |
| O=C(CSc1nnnn1-c1ccccc1)CC(=O)Nc1ccc(Cl)cc1 | inconclusive: 14.1 µM [inhibitor, single point] | – |
| CCOc1ccc(NC(=O)c2cnn(-c3ccccc3)c2-n2cccc2)cc1 | inconclusive: 0.0891 µM [inhibitor, full curve, poor fit] | – |

| SMILES | Potency | activity, negative = inhibition |
| --- | --- | --- |
| Cc1ccc(CNC(=O)c2ccc3nc4[nH]c5ccccc5c4nc3c2)cc1 | inconclusive: 15.8 µM [inhibitor, partial curve, poor fit] | – |
| COc1ccc(N2CCN(C(=O)CSc3nnc(NC(=O)C4CC4)s3)CC2)cc1 | inconclusive: 12.6 µM [inhibitor, partial curve] | – |
| COC(=O)c1c(NC(=O)CSc2nncs2)sc2c1CCCCC2 | inconclusive: 8.91 µM [inhibitor, partial curve] | – |
| Cc1c(Cl)c([N+](=O)[O-])nn1CCCC(=O)Nc1sc2c(c1C(N)=O)CCC(C)C2 (configuration not stated) | inconclusive: 5.62 µM [inhibitor, partial curve] | – |
| N#Cc1c(-c2ccccc2)cc(-c2ccccc2)nc1SCC(O)CS(=O)(=O)Cc1ccccc1 (configuration not stated) | inconclusive: 39.8 µM [inhibitor, single point] | – |
| CCOC(=O)N1CCC(Nc2c(-c3ccccc3)c(=O)c2=O)CC1 | – | inactive: -21.7% |
| Cn1cc(C(=O)c2ccc(Cl)cc2)cc1-c1nc2ccccc2n1C | inconclusive: 12.6 µM [inhibitor, partial curve] | – |
| O=S(=O)(c1ccc(NC(=S)NN=C(C2CC2)C2CC2)cc1)N1CCOCC1 | inconclusive: 39.8 µM [inhibitor, single point] | – |
| C(=N\Nc1nc2ccccc2s1)/c1ccccn1 | inconclusive: 31.6 µM [inhibitor, single point] | – |
| CN(C)c1ccc(C(=S)N2CCN(c3ccc([N+](=O)[O-])cc3)CC2)cc1 | – | inactive: -7.24% |
| COc1ccc(CN(Cc2ccco2)C(=O)COc2ccc(Cl)cc2C)cc1 | inconclusive: 31.6 µM [inhibitor, single point] | – |
| CCOc1ccc(C(=O)OCCN(CC)CC)cc1 | inactive | – |
| Cc1ccc(C)c(N2CCN(C(=O)c3ccc(-c4nc(COc5ccccc5)c(C)o4)cc3)CC2)c1 | inconclusive: 7.94 µM [inhibitor, full curve, poor fit] | – |
| CCOC(=O)c1c(NC(=O)/C=C/c2ccc(C)o2)sc(C)c1C | inconclusive: 35.5 µM [inhibitor, single point] | – |
| CCN(Cc1ccccc1)c1ccc(/C=N/NS(=O)(=O)c2cccc([N+](=O)[O-])c2)cc1 | inconclusive: 28.2 µM [inhibitor, single point] | – |
| CN(C)c1ccc(C2SCCN2C(=O)c2ccc([N+](=O)[O-])cc2)cc1 (configuration not stated) | inconclusive: 11.2 µM [inhibitor, partial curve] | – |
| CCOc1ccc(CCN2C(=O)C3C4C=CC(C4)C3C2=O)cc1OCC (configuration not stated) | – | inactive: -7% |
| CCCCc1ccc(NC2=NCC(=O)N2CCc2ccccc2)cc1 | inconclusive: 25.1 µM [inhibitor, partial curve] | – |
| CNc1oc(Cc2ccccc2)nc1S(=O)(=O)c1ccccc1 | inconclusive: 14.1 µM [inhibitor, partial curve] | – |
| CCOC(=O)c1cccc(NC(=O)c2ccc3c(c2)nnn3CC)c1 | inconclusive: 28.2 µM [inhibitor, single point] | – |
| CC1(C)N=C(N)N=C(N)N1c1cccc(C(=O)O)c1 | – | inactive: -3.81% |
| COc1ccc(S(=O)(=O)c2c(N)n(Cc3ccco3)c3nc4ccccc4nc23)cc1 | inconclusive: 15.8 µM [inhibitor, partial curve] | – |
| C/C(=N\N=C(c1ccccc1)c1ccccc1)c1ccco1 | inconclusive: 44.7 µM [inhibitor, single point] | – |

| SMILES | Potency | activity, negative = inhibition |
| --- | --- | --- |
| O=C(OCc1cc(=O)n2nc(-c3cccs3)sc2n1)c1cccc(Cl)c1 | inconclusive: 2 µM [inhibitor, full curve] | – |
| Cc1ccc(SCCc2ccc(C)nc2)cc1 | – | inactive: -15.8% |
| COc1ccc(S(=O)(=O)NCC(c2cccnc2)N2CCN(c3ccc(F)cc3)CC2)cc1C (configuration not stated) | – | inactive: -13.4% |
| CCOc1ccc(NC(=O)N2CCC(c3nc4ccccc4[nH]3)CC2)cc1 | inconclusive: 17.8 µM [inhibitor, single point] | – |
| CCOc1cc(N2CCOCC2)c(OCC)cc1NC(=O)c1ccco1 | inconclusive: 39.8 µM [inhibitor, single point] | – |
| CCCCC/C=C\C/C=C\C/C=C\CCCCCCC(=O)NCC(=O)O | – | inactive: -9.21% |
| COc1ccc(CNC(=O)C2CCCN(S(=O)(=O)N(C)c3ccc(F)cc3)C2)cc1OC (configuration not stated) | – | inactive: 5.94% |
| CCn1c(SCC(=O)NCc2ccco2)nc2cccnc21 | – | inactive: -14.5% |
| CN1/C(=C\C(=O)COC(=O)Cn2nnc(-c3ccccc3)n2)C(C)(C)c2ccccc21 | inconclusive: 15.8 µM [inhibitor, partial curve] | – |
| COc1ccc2[nH]c3ccccc3c2c1 | inconclusive: 12.6 µM [inhibitor, partial curve] | – |
| COc1cc(-c2nc3ccc4ccccc4c3c3c2CCC3)cc(OC)c1OC | inconclusive: 22.4 µM [inhibitor, single point] | – |
| CCOC(=O)N/N=C1/C[C@@H](O)[C@@H](O)[C@@H]2[C@@H]3C(=O)N(C[C@@H]4CCCO4)C(=O)[C@H]3CC[C@H]12 | – | inactive: -16.5% [at 11.5 µM] |
| Cc1ccc(C(=O)CSc2nsc(C)c2C#N)cc1 | inconclusive: 39.8 µM [inhibitor, partial curve, poor fit] | – |
| COc1ccc(COc2ccccc2C(=O)Nc2ccccn2)cc1[N+](=O)[O-] | – | inactive: 0.921% |
| CCn1c2ccccc2c2cc(NC(=O)CSc3nnc(-c4ccccc4)o3)ccc21 | inconclusive: 3.55 µM [inhibitor, full curve] | – |
| CCSc1nc2nn(-c3ccccc3)c(=O)c-2c2n1CCCCC2 | inconclusive: 20 µM [inhibitor, partial curve] | – |
| NC(=O)CC(NC(=O)Cc1ccc(Br)cc1)c1ccc(NCCc2cccc(F)c2)c([N+](=O)[O-])c1 (configuration not stated) | inconclusive: 5.62 µM [inhibitor, partial curve] | – |
| CCCCOc1ccc2c(C)cc(=O)oc2c1OCCCC | inconclusive: 39.8 µM [inhibitor, single point] | – |
| COc1ccccc1/C=C/C(=O)OC(C)CN1CCOCC1 (configuration not stated) | – | inactive: -0.657% |
| COc1ccc2[nH]c(C(=O)O)c(NS(=O)(=O)c3ccc(OC)c(OC)c3)c2c1 | inconclusive: 31.6 µM [inhibitor, partial curve] | – |
| O=[N+]([O-])c1cc(S(=O)(=O)Nc2ccccc2)ccc1-n1nnc2ccccc21 | inconclusive: 35.5 µM [inhibitor, single point] | – |
